# Laboratory results as given in PubChem BioAssay (NCATS).
# Inconclusive results, whose numbers are uncertain, are shown with a selection of clear calls. No potency is given beside an inconclusive call; the fits are too rough. The source made the active and inactive calls. Calls follow the shape of the dose curve; as a rule, active = well fitted curve in the direction sought with a large enough effect; inconclusive = small, poorly fitted or top-dose-only effect, or another doubt; inactive = no such curve, though single readings can be large; an effect the other way counts as inactive or inconclusive.
# Molecular target: DNA polymerase eta (Homo sapiens) (UniProt Q9Y253)
# Sequence of UniProt Q9Y253 (Q9Y253 whole entry, looked up): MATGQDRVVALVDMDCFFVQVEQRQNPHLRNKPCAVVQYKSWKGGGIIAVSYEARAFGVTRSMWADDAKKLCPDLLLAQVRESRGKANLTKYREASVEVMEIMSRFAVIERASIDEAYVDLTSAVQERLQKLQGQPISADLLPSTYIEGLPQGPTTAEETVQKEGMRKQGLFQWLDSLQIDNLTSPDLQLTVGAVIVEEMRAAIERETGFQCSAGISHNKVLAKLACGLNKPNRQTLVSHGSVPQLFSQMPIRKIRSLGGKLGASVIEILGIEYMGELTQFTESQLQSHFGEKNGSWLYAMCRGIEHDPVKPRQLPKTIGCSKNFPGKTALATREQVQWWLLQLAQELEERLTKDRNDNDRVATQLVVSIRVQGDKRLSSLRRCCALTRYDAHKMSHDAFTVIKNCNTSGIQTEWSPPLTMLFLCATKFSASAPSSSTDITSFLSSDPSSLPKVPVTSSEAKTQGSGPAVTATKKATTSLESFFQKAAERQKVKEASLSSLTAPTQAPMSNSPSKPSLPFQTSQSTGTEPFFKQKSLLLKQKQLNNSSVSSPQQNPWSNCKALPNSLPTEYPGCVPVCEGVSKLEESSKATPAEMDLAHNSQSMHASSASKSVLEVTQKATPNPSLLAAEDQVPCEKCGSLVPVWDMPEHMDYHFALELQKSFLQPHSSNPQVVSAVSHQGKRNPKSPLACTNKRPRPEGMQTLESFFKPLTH
# Assay: qHTS for Inhibitors of Polymerase Eta: Confirmatory Assay for Cherry-picked Compounds (AID 720502)
# Conditions: Pol eta primer extension, TAMRA/BHQ fluorescence, 10 min
# Outline: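 Pol eta 10 nM; substrate 50 nM final (unlabeled primer, TAMRA reporter, BHQ-2 template); preincub. 15 min RT; reads t=0 and t=10 min at ex525/em598.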
# Potency is read from the fitted curve at half-maximal effect; tags tell the direction and shape of the fitted curve.
row,SMILES,Potency
1,O=C1OC(c2cccs2)=N/C1=C/c1ccc(-c2cccc(C(=O)O)c2)o1,active: 26.9 µM
2,C/C(=N/NC(=O)c1cc2ccccc2cc1O)C1C(=O)c2ccccc2C1=O,"inconclusive [inhibitor, single point]"
3,COc1ccc(OC)c(NC(=O)COC(=O)c2cc3c(s2)CCC3)c1,active: 15.1 µM
4,COc1ccc(OC)c(/C=N/c2oc(-c3ccco3)c(-c3ccco3)c2C#N)c1,active: 47.8 µM
5,COc1cc(/C=C2\CCc3c2nc2ccccc2c3C(=O)O)cc(OC)c1OC,active: 15.1 µM
6,N#CNC(=O)c1ccc(-n2cccc2/C=C2\NC(=O)N(CC(=O)Nc3ccc(Cl)cc3)C2=O)cc1,"inconclusive [inhibitor, partial curve, poor fit]"
7,N=C1S/C(=C\c2ccc(-c3cccc(Cl)c3)o2)C(=O)N1c1nccs1,"inconclusive [inhibitor, partial curve, poor fit]"

# Molecular target: RecQ-like DNA helicase BLM (Homo sapiens) (UniProt P54132)
# Sequence of UniProt P54132 (P54132 whole entry, looked up): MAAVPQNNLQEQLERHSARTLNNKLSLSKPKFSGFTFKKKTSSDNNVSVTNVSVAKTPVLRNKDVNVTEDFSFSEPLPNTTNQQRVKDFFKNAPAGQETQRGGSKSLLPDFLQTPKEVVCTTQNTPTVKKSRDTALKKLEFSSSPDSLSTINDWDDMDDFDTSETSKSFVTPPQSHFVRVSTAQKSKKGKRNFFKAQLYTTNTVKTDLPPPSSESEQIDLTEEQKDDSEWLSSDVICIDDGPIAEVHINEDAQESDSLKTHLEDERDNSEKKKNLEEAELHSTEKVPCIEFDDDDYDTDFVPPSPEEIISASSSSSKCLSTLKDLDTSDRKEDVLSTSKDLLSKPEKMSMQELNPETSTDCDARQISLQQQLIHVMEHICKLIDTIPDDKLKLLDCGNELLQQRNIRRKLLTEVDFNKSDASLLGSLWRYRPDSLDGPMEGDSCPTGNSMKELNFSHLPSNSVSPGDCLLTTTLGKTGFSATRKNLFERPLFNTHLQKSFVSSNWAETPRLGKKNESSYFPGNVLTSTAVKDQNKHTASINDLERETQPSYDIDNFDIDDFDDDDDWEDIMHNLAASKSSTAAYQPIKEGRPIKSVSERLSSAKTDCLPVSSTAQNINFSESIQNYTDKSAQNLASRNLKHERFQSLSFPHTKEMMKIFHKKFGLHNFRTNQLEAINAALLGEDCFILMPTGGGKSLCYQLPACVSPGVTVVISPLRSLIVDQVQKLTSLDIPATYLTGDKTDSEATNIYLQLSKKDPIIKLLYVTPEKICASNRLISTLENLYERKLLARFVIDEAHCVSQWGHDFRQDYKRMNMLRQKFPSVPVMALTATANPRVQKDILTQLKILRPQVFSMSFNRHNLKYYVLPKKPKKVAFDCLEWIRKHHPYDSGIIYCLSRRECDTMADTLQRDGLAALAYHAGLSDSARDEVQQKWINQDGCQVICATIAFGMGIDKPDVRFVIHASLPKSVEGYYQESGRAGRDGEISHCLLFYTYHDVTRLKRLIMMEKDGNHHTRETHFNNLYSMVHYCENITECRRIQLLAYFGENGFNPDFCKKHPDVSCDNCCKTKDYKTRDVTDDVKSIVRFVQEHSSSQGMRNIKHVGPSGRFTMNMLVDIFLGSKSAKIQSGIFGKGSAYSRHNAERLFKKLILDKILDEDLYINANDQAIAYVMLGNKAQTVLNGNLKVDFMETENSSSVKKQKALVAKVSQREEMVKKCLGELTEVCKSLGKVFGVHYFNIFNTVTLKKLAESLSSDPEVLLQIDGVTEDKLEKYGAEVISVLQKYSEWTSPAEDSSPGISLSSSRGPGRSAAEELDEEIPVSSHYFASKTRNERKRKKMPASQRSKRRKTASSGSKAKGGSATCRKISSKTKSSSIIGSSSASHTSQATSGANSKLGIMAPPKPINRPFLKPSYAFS
# Assay: qHTS for Inhibitors of WRN Helicase: BLM Helicase Counterscreen for WRN Inhibitors (AID 720503); also: nearly all actives have a fitted effect of over 60% in size
# Conditions: Recombinant BLM helicase DNA unwinding, red fluorescence; series mostly up to 57.1 µM
# Outline: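 1 nM BLM, Tris pH 8.0/NaCl/MgCl2/DTT/Tween-20; cpd preinc 15 min RT; start w/ 100 nM DNA + 2 mM ATP final; fluorescence (ex 525/em 598) two reads 15 min apart; normalized to enzyme-free and DMSO controls.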
row,SMILES,Potency
1,O=C1OC(c2cccs2)=N/C1=C/c1ccc(-c2cccc(C(=O)O)c2)o1,"inconclusive [inhibitor, partial curve]"
2,CC(C)Cc1ccc(C(C)/C=C2/CCC(CN3CCCCC3)C2=O)cc1 (centres undefined),"inconclusive [inhibitor, partial curve]"
3,CN(C)CCNc1ccc(CO)c2sc3ccc(O)cc3c(=O)c12,"inconclusive [inhibitor, single point]"
4,COC(=O)c1ccc(CCc2cc(O)c(Br)cc2O)cc1,"inconclusive [inhibitor, full curve]"
5,O=C(NN1C(=O)/C(=C/C=C/c2ccco2)SC1=S)c1ccccc1O,active: 8.57 µM
6,O=C(COC(=O)c1ccccc1)Nc1ncc([N+](=O)[O-])s1,active: 1.08 µM
7,Oc1ccc(O)c(Cc2nc3ccccc3[nH]2)c1,active: 6.81 µM
8,O=C(COc1ccc(/C=N/NC(=O)c2ccccc2O)cc1)Nc1ccc([N+](=O)[O-])cc1,active: 4.82 µM
9,Oc1ccc(Nc2ccc3ccccc3c2)cc1,"inconclusive [inhibitor, partial curve]"
10,CCSc1nnc(NC(=O)CSc2sc3c(O)cc(=O)[nH]c3c2C#N)s1,"inconclusive [inhibitor, partial curve]"
11,N=C1S/C(=C\c2ccc(-c3cccc(Cl)c3)o2)C(=O)N1c1nccs1,active: 7.64 µM
12,COc1cc(/C=C2\CC/C(=C\c3cc(OC)c(O)c(OC)c3)C2=O)cc(OC)c1O,active: 5.41 µM
